In publication PMC4336329 (PLoS ONE, 2015):
In all, about 310,000 compounds went through this assay and about 14,000 (4.5%) showed an effect of 50% or more. The effect is printed as a negative number. The list shows a part of the results.

Molecular target: human ether-à-go-go-related gene (hERG) potassium channel (human, UniProt Q12809)
Assay: primary screen, population patch clamp on CHO cells stably expressing hERG
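Also: peak tail current of the secondary pulse compared with the same well before compound.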

human ether-à-go-go-related gene (hERG) potassium channel, sequence (Q12809 whole entry, looked up): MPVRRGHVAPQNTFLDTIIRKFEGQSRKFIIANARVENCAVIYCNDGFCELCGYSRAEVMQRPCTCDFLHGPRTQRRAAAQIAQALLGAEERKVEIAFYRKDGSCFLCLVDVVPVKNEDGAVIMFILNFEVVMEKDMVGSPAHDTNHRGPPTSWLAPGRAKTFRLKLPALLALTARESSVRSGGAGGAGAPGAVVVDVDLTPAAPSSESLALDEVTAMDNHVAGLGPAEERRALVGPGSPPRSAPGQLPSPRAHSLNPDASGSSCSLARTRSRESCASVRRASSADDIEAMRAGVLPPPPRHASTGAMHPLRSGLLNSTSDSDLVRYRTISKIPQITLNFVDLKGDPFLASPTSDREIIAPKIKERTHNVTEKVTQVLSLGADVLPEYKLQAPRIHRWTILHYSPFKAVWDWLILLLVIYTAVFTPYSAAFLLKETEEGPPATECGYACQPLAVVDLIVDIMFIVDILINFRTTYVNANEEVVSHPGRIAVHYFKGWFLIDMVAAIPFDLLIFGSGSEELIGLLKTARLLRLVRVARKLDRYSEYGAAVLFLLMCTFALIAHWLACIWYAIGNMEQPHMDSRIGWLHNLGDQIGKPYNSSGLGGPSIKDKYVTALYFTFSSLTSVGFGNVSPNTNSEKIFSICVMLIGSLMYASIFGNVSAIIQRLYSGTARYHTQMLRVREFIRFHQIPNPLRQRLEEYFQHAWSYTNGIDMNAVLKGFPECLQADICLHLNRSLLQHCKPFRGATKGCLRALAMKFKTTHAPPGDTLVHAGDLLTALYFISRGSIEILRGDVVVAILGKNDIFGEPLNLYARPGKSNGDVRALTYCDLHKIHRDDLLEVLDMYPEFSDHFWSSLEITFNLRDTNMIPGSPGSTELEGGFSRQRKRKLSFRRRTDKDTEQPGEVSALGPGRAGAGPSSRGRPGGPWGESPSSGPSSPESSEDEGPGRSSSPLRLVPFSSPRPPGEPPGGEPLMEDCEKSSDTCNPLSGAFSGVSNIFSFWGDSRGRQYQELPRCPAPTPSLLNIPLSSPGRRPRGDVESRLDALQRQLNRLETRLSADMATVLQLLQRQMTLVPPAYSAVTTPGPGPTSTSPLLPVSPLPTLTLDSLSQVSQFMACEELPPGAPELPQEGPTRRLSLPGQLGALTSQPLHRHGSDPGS

| SMILES | hERG current change (%, negative = inhibition) at 10uM [%] |
| --- | --- |
| CSc1ccc(CNC2CC2)cc1.Cl | -7.3 |
| C=C1C[C@H](O)[C@@H]2[C@H](OC(=O)[C@H]2C)[C@H]2[C@H](C)[C@@H](O)C[C@@H]12 | 17.2 |
| FC(F)(F)c1cccc(N2CCN(c3ccc4nnc(-c5ccccc5)n4n3)CC2)c1 | -4.4 |
| CCOCCOCCC(C(=O)O)P(=O)(c1ccccc1)c1ccccc1 (centres unmarked) | -8.84 |
| CCCn1cnc2cc(NCc3cccs3)ccc21 | -10.9 |
| CCOc1ccc(CCNC(=O)c2cccc3c2C(=O)N(CCOC)C3)cc1OCC | -16.9 |
| COc1ccc(S(=O)(=O)N(CC(=O)N/N=C/c2cccs2)c2cc(C)cc(C)c2)cc1OC | -22.2 |
| Cc1cc(C)c(NC(=O)COC(=O)c2nc3nccc(C)n3n2)c(Cl)c1 | -8.2 |
| COC(=O)CNc1nc(C2CC2)nc2c1nnn2Cc1ccccc1Cl | -8.66 |
| CCCn1c(N)c(C(=O)CSc2nc3ccccc3s2)c(=O)[nH]c1=O | -2.95 |
| CC(=O)OCC1OC(n2ccc(=O)[nH]c2=O)C(O)C1O (centres unmarked) | 11.6 |
| Cc1cc(C(=O)NCCc2ccc(Cl)cc2)no1 | 6.19 |
| Cc1ccc(C2=N/C(=C\c3ccc(OS(=O)(=O)c4ccc(C)cc4)cc3)C(=O)O2)cc1 | 10.7 |
| Cc1cc(C(=O)OC(C)C(=O)Nc2cccc(S(=O)(=O)N3CCOCC3)c2)c(C)o1 (centres unmarked) | -23.1 |
| COC(=O)c1c(NC(=O)C(=O)N2CCCC2)sc2c1CC(C)(C)OC2 | 11.7 |
| CCCOc1ccccc1N/C(=N/c1nc(C)cc(C)n1)NC(=O)COc1ccc(OC)cc1 | -10 |
| Cc1ccc(C)c(NC(=O)CSc2nnc(CNC(=O)c3ccco3)n2C)c1 | 3.14 |
| COc1cc(C)c(-c2cc(C(=O)O)c(C)o2)cc1C(C)C | 16.3 |
| COc1ccc(-n2c(SCC#N)nnc2-c2cccnc2)cc1 | -34 |

| SMILES | hERG current change (%, negative = inhibition) at 10uM [%] |
| --- | --- |
| CC(=O)Nc1cccc(N=NN2CCOCC2)c1 | 9.55 |
| O=C(Nc1cccc(-c2nnc(-c3ccccc3)o2)c1)C1CC1 | -19.3 |
| CC(=O)c1nn(-c2cccc(Br)c2)cc1C(=O)c1ccc(Cl)cc1 | 0.551 |
| Cc1ccc(NC(=O)c2cc(N3C(=O)C4CC=CCC4C3=O)ccc2N2CCOCC2)cc1Cl (centres unmarked) | 4.08 |
| COc1ccc(NC(=O)CN(C)C(=O)c2ccc(=O)[nH]c2)cc1 | 21.7 |
| CCc1cn(S(=O)(=O)c2ccccc2OC)nc1N | 1.19 |
| COc1ccc(OC)c2sc(NC(=O)C3=COCCO3)nc12 | 10.4 |
| O=C(Cc1ccc2c(c1)OCCO2)Nc1cccc(S(=O)(=O)N2CCOCC2)c1 | -26.4 |
| CCOC(=O)C1(CC)NC(c2cccc(F)c2)C2C(=O)N(CC)C(=O)C21 (centres unmarked) | -8.42 |
| COc1ccc(Br)cc1CN1CCC(N2CCCC2)CC1.O=C(O)C(=O)O | -2.59 |
| Cc1cc(C)n(CCOC(=O)C2C(C=C(Cl)Cl)C2(C)C)n1 (centres unmarked) | -22.1 |
| COc1ccc(NC(=O)/C(C#N)=C\c2cc(OC)c(OCc3ccc(C(=O)O)cc3)cc2Br)cc1 | 14 |
| C=CCn1cccc(C(=O)Nc2ccc(OC)c(Cl)c2)c1=O | -7.3 |
| Cc1cc(F)ccc1S(=O)(=O)N1CCCOC1CNC(=O)C(=O)NCc1ccncc1 (centres unmarked) | -1.47 |
| O=C(O)c1cccc(CN2C(=O)c3ccccc3C2=O)c1 | 3.71 |
| COC(=O)C1=CN(c2ccc(F)cc2)C=C(C(=O)OC)C1c1ccc(O)cc1 | -7.62 |
| O=C(C1CC(=O)N(C2CCCCC2)C1)N1CCC2(CC1)OCCO2 (centres unmarked) | 8.28 |
| Cc1cc(=O)nc2c3ccccc3n(C(C)C(=O)Nc3c(F)c(F)c(F)c(F)c3F)n12 (centres unmarked) | -5.49 |
| CN(C)S(=O)(=O)c1cccc(-c2cn3cc(Cl)ccc3n2)c1 | 7.03 |

| SMILES | hERG current change (%, negative = inhibition) at 10uM [%] |
| --- | --- |
| Oc1ccc(C(=S)N2CCCCCC2)cc1 | 14.4 |
| Cc1cc(C)n(C(=O)Cn2nc([N+](=O)[O-])cc2C)n1 | -12.2 |
| CC(=O)c1cccc(NC(=O)c2ccc(N(Cc3ccccc3)S(C)(=O)=O)cc2)c1 | -5.79 |
| CCOC(=O)c1c(C)n(C)c2ccc(OCC(O)Cn3nc(C)c(Br)c3C)cc12 (centres unmarked) | 3.85 |
| O=C(COc1ccc(S(=O)(=O)N2CCOCC2)cc1)NCCc1ccccc1 | -13.4 |
| O=S(=O)(Cc1ccccc1)Nc1ccc(Br)cn1 | 14.4 |
| COc1ccccc1NC(=O)c1ccc(NC(=O)COC(=O)C2CC2C)cc1 (centres unmarked) | -16.6 |
| Cc1cccc(-n2nc(C(=O)c3ccco3)cc(-c3nc4ccccc4[nH]3)c2=N)c1 | -65.7 |
| Cc1cc(Nc2ccccc2C(=O)O)n(-c2ccc([N+](=O)[O-])cc2)n1 | 4.19 |
| O=C(NC1CCCCC1)c1c(O)nc2sccn2c1=O | -26 |
| Cc1ccc(C(c2cc(Cl)c3cccnc3c2O)N2CCN(C)CC2)cc1 (centres unmarked) | -9.97 |
| c1ccc2nc3[nH]cnc3nc2c1 | -5.15 |
| O=C(NC1CCCC1)c1cc(S(=O)(=O)N2CCOCC2)c(Cl)cc1Cl | -8.15 |
| COc1ccc(S(=O)(=O)N2CCOCC2)cc1NC(=O)c1cc(=O)[nH]c2ccccc12 | 6.02 |
| Cl.Cn1ccc2cc(NC(=O)Nc3cccnc3)ccc21.O | -4.02 |
| N#CCSc1ccc(-c2nc3ccccc3[nH]2)cn1 | 10.4 |
| CC(NC(=O)c1ccncc1)c1ccc(Br)cc1 (centres unmarked) | -0.842 |
| N#CCSc1nc(N)c(C#N)c(C2CCCCC2)c1C#N | 8.44 |
